The supplement of paper PMC12067230
This is a noisy data set.

test: amyloid nucleation score relative to library mode (yeast Sup35 reporter selection) (log enrichment difference); higher = more amyloid nucleation; sequences are the first 22 residues of the Bri2 peptide extended by up to 12 random residues; details: random library (experiment): 1;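 active = nucleation score significantly above 0 at FDR 0.05; inactive = not significantly above 0 or absent from output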
Procedure: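 Random C-terminal extensions of the 22-aa Bri2 peptide by 12 NNK codons; premature stops give shorter extensions. Peptides were fused to the Sup35 nucleation domain in S. cerevisiae [psi-pin-] and selected on -ADE-URA plates for 7 d at 30 °C. The nucleation score is log(output/input), centred to the mode of each of 3 independent libraries (1 input, 3 technical output replicates), with duplicates merged. Sequences absent from the output ('random_non_nuc') were imputed with the library mode value, so they are given as censored (<). Nucleators are scores significantly >0 at FDR 0.05.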
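Also: [psi-pin-] Saccharomyces cerevisiae expressing SupN fusions, induced by 100 µM Cu2SO4, selected 7 d at 30 °C without adenine and uracil, scored by deep sequencing of output versus input.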

| Sequence | amyloid nucleation score |
| --- | --- |
| EASNCFAIRHFENKFAVETLICWIVEQCARARLW | inactive |
| EASNCFAIRHFENKFAVETLICTRASSEYAAWAD | 1.96 |
| EASNCFAIRHFENKFAVETLICRTLVFRQCGVCV | inactive |
| EASNCFAIRHFENKFAVETLICEAIGATYGEVRV | inactive |
| EASNCFAIRHFENKFAVETLICHHLSTCSTGSRQ | 3.35 |
| EASNCFAIRHFENKFAVETLICESRT | inactive |
| EASNCFAIRHFENKFAVETLICGGTVRVRAKS | inactive |
| EASNCFAIRHFENKFAVETLICRSCTSSTLCLRS | 3.16 |
| EASNCFAIRHFENKFAVETLICWRRASNRWWALL | inactive |
| EASNCFAIRHFENKFAVETLICYQEMISSPSELG | inactive |
| EASNCFAIRHFENKFAVETLICEAISEMWGASVR | inactive |
| EASNCFAIRHFENKFAVETLICRYDCCRSLIRVR | inactive |
| EASNCFAIRHFENKFAVETLICWLEGIRGCGLVG | inactive |
| EASNCFAIRHFENKFAVETLICVAV | inactive |
| EASNCFAIRHFENKFAVETLICRYKDEEERDSGH | inactive |
| EASNCFAIRHFENKFAVETLICGMGGSPNGHHRS | inactive |
| EASNCFAIRHFENKFAVETLICVLNGLSIRCYVR | inactive |
| EASNCFAIRHFENKFAVETLICGSSMGMFNSVKD | 3.92 |

| Sequence | amyloid nucleation score |
| --- | --- |
| EASNCFAIRHFENKFAVETLICRSEFCSARKCWQ | 4.74 |
| EASNCFAIRHFENKFAVETLICLGYGLVLKVRRV | -0.399 |
| EASNCFAIRHFENKFAVETLICDRAFYVWVTVVK | inactive |
| EASNCFAIRHFENKFAVETLICWIRTRRLRYQYG | inactive |
| EASNCFAIRHFENKFAVETLICGDSKDL | inactive |
| EASNCFAIRHFENKFAVETLICVMTGLNFERS | inactive |
| EASNCFAIRHFENKFAVETLICIELGFGESGGDR | 2.96 |
| EASNCFAIRHFENKFAVETLICYKSSYCQQHVRH | 4.28 |
| EASNCFAIRHFENKFAVETLICKASGR | inactive |
| EASNCFAIRHFENKFAVETLICCFKISLW | 6.62 |
| EASNCFAIRHFENKFAVETLICNMLCNNTRLY | 5.86 |
| EASNCFAIRHFENKFAVETLICRRHERQ | inactive |
| EASNCFAIRHFENKFAVETLICWMERPAGHRPMC | inactive |
| EASNCFAIRHFENKFAVETLICNALANRYSDKAV | inactive |
| EASNCFAIRHFENKFAVETLICARVHEDHRVSSG | -0.029 |
| EASNCFAIRHFENKFAVETLICLYVSRYSYGWMV | inactive |
| EASNCFAIRHFENKFAVETLICLGERSIGRDPAV | 0 |

same assay, conditions: random library (experiment): 2

| Sequence | amyloid nucleation score |
| --- | --- |
| EASNCFAIRHFENKFAVETLICDLV | inactive |
| EASNCFAIRHFENKFAVETLICIHISLTYVANP | 6.17 |
| EASNCFAIRHFENKFAVETLICGSSQLPAPLLGR | inactive |
| EASNCFAIRHFENKFAVETLICDFYM | inactive |
| EASNCFAIRHFENKFAVETLICLHIPYIKRVDTA | inactive |
| EASNCFAIRHFENKFAVETLICYIIIKGYMFFKP | inactive |
| EASNCFAIRHFENKFAVETLICDTIINVIWWNWV | inactive |
| EASNCFAIRHFENKFAVETLICNNGLVAMQSCWS | 3.39 |
| EASNCFAIRHFENKFAVETLICWILFICYGFGSS | inactive |
| EASNCFAIRHFENKFAVETLICVTNLSLRQDEVL | 3.12 |
| EASNCFAIRHFENKFAVETLICGMWLFHFGFKYD | inactive |
| EASNCFAIRHFENKFAVETLICDLWNWTCECV | 6.17 |
| EASNCFAIRHFENKFAVETLICRECLHHVPLSLC | -0.372 |
| EASNCFAIRHFENKFAVETLICIRHNTFLYRNAG | 4.74 |
| EASNCFAIRHFENKFAVETLICCYG | inactive |
| EASNCFAIRHFENKFAVETLICYFYRH | inactive |
| EASNCFAIRHFENKFAVETLICLRRLCIYFNLS | -0.708 |
| EASNCFAIRHFENKFAVETLICMHWSWEKFPS | inactive |
| EASNCFAIRHFENKFAVETLICCSRRNLSDTYIK | inactive |
| EASNCFAIRHFENKFAVETLICAWPAPSVYGCGR | 4.58 |
| EASNCFAIRHFENKFAVETLICLLNLCNKEWSGR | 7.34 |
| EASNCFAIRHFENKFAVETLICEVWVSHL | inactive |
| EASNCFAIRHFENKFAVETLICGFSMCVH | 6.54 |

same assay, conditions: random library (experiment): 3

| Sequence | amyloid nucleation score |
| --- | --- |
| EASNCFAIRHFENKFAVETLICCCGGVTESAACG | 6.99 |
| EASNCFAIRHFENKFAVETLICCSGCSMSDSVRR | 8.35 |
| EASNCFAIRHFENKFAVETLICYLSNVDCMFDTI | inactive |
| EASNCFAIRHFENKFAVETLICGNFTVCQLARKA | 7.61 |
| EASNCFAIRHFENKFAVETLICIVAHKVWVGDYM | inactive |
| EASNCFAIRHFENKFAVETLICGLKMENSSFG | inactive |
| EASNCFAIRHFENKFAVETLICGRLTLMVVCGFL | inactive |
| EASNCFAIRHFENKFAVETLICFHYEYQHRFTEA | 2.8 |
| EASNCFAIRHFENKFAVETLICWVDGRCWGDCQG | 5.01 |
| EASNCFAIRHFENKFAVETLICMEPERMLLRDDG | inactive |
| EASNCFAIRHFENKFAVETLICGEKDNAFVICIS | inactive |
| EASNCFAIRHFENKFAVETLICALLLNVIAPFNV | inactive |
| EASNCFAIRHFENKFAVETLICFTGIQ | inactive |
| EASNCFAIRHFENKFAVETLICNYLYTRVFWNGS | inactive |
| EASNCFAIRHFENKFAVETLICALLASGDDECWT | inactive |
| EASNCFAIRHFENKFAVETLICLSFGLTVRTRSA | inactive |
| EASNCFAIRHFENKFAVETLICYGFVLKFDAWSV | inactive |
| EASNCFAIRHFENKFAVETLICTSRSRRVYVFYR | inactive |
| EASNCFAIRHFENKFAVETLICGMRVLQLSLTVD | inactive |
| EASNCFAIRHFENKFAVETLICNAGDAPLGNGV | inactive |
| EASNCFAIRHFENKFAVETLICGGGVVPLEWRSG | inactive |
| EASNCFAIRHFENKFAVETLICHVWGSLAMQNLL | 5.76 |
| EASNCFAIRHFENKFAVETLICFYVTFCIVSRMS | inactive |
| EASNCFAIRHFENKFAVETLICGFYSDRDVLLLW | inactive |
| EASNCFAIRHFENKFAVETLICATSNLSFLVEVF | 2.81 |
| EASNCFAIRHFENKFAVETLICVYWHIFKVPFRH | inactive |
| EASNCFAIRHFENKFAVETLICFGLTLRNCVPV | inactive |
| EASNCFAIRHFENKFAVETLICAY | 0.996 |
